Assay results: the supplement of paper PMC12355420
Where a name gives a salt, the structure may show the parent alone. The list shows a part of the results. Rule as the data show it: active = 0.5 or less and inactive = the rest. Most values come without repeats; read them as rough.

These molecules were tested on HeLa VPS33A R498W KI + HA-SDC1-FLAG (assay: relative GAG core protein HA-SDC1 amount per cell number vs DMSO (fraction of DMSO); HeLa model of a glycosaminoglycan (GAG) storage disease; KI is knock-in and KO knock-out; SDC1 is syndecan 1; higher = more SDC1 (GAG core protein)). Conditions: 50 µM; 24 h.
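Also: HA-SDC1 level read out by In-Cell Western staining with an anti-HA antibody against the N-terminal tag, screening FDA-approved library drugs.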

Relative GAG core protein HA-SDC1 amount per cell number, inactive:
CCOC(=O)Nc1ccc(NCc2ccc(F)cc2)nc1N [Flupirtine maleate] 0.746
OCC1(O)OC[C@@H](O)[C@@H](O)[C@@H]1O (stereo partly drawn) [D-(-)-Fructose] 0.914
COc1nc(C)nc(Cl)c1NC1=NCCN1 [Moxonidine] 1.29
N[C@H]1CONC1=O [L-Cycloserine] 1.01
C[C@@H]1C/C=C/C=C/C=C/C=C/[C@H](O[C@@H]2O[C@H](C)[C@@H](O)[C@H](N)[C@@H]2O)C[C@@H]2O[C@](O)(C[C@@H](O)C[C@H]3O[C@@H]3/C=C/C(=O)O1)C[C@H](O)[C@H]2C(=O)O [Natamycin] 0.95
O=C(O[C@@H]1C[C@@H]2C[C@H]3C[C@H](C1)N2CC3=O)c1c[nH]c2ccccc12 [Dolasetron] 0.873
C[C@H](CCC(=O)NCCS(=O)(=O)O)[C@H]1CC[C@H]2[C@@H]3[C@@H](O)C[C@@H]4C[C@H](O)CC[C@]4(C)[C@H]3CC[C@]12C [Tauroursodeoxycholic Acid] 0.943
COc1ccccc1N1CCN(CC(O)COc2cccc3ccccc23)CC1 (configuration not stated) [Naftopidil] 1.01
O=c1c(O)c(-c2ccc(O)c(O)c2)oc2cc(O)cc(O)c12 [Quercetin dihydrate] 1.12
Oc1cccc(O)c1 [Resorcinol] 0.899
CCCCCCNC(=O)n1cc(F)c(=O)[nH]c1=O [Carmofur] 0.83
CC(C)(CO)[C@@H](O)C(=O)NCCCO [Dexpanthenol] 0.847
COC(=O)N/N=C/c1c[n+]([O-])c2ccccc2[n+]1[O-] [Carbadox] 1.2
COc1ccc(/C=C/C(=O)Nc2ccccc2C(=O)O)cc1OC [Tranilast] 1.14
CC1Cc2ccccc2N1NC(=O)c1ccc(Cl)c(S(N)(=O)=O)c1 (configuration not stated) [Indapamide] 0.82
CN[C@H](CC(C)C)C(=O)N[C@H]1C(=O)N[C@@H](CC(N)=O)C(=O)N[C@H]2C(=O)N[C@H]3C(=O)N[C@H](C(=O)N[C@H](C(=O)O)c4cc(O)cc(O)c4-c4cc3ccc4O)[C@H](O)c3ccc(c(Cl)c3)Oc3cc2cc(c3O[C@@H]2O[C@H](CO)[C@@H](O)[C@H](O)[C@H]2O[C@H]2C[C@](C)(N)[C@H](O)[C@H](C)O2)Oc2ccc(cc2Cl)[C@H]1O [Vancomycin hydrochloride] 1.45
c1cc(CN2CCCNCCNCCCNCC2)ccc1CN1CCCNCCNCCCNCC1 [Plerixafor 8HCl (AMD3100 8HCl)] 1.4
C[C@]12CC[C@@H]3c4ccc(OC(=O)c5ccccc5)cc4CC[C@H]3[C@@H]1CC[C@@H]2O [Estradiol Benzoate] 0.681
Oc1ccc(OCc2ccccc2)cc1 [Monobenzone] 0.816
CC[C@H]1OC(=O)[C@H](C)[C@@H](O[C@H]2C[C@@](C)(OC)[C@@H](O)[C@H](C)O2)[C@H](C)[C@@H](O[C@@H]2O[C@H](C)C[C@H](N(C)C)[C@H]2O)[C@](C)(O)C[C@@H](C)C(=O)[C@H](C)[C@@H](O)[C@]1(C)O [Erythromycin] 0.677
Cc1nnc(C(C)C)n1C1C[C@H]2CC[C@@H](C1)N2CC[C@H](NC(=O)C1CCC(F)(F)CC1)c1ccccc1 (stereo in doubt) [Maraviroc] 1.04
Cn1nnc2c(C(N)=O)ncn2c1=O [Temozolomide] 0.778
CC[C@@H]1/C=C(\C)C[C@H](C)C[C@H](OC)[C@H]2O[C@@](O)(C(=O)C(=O)N3CCCC[C@H]3C(=O)O[C@H](/C(C)=C/[C@@H]3CC[C@H](Cl)[C@H](OC)C3)[C@H](C)[C@@H](O)CC1=O)[C@H](C)C[C@@H]2OC [Pimecrolimus] 0.531
CN1CCC[C@H]1c1cccnc1 [Nicotine] 0.854
COc1ccccc1Oc1c(NS(=O)(=O)c2ccc(C(C)(C)C)cc2)nc(-c2ncccn2)nc1OCCO [Bosentan] 1.17
CC(COc1ccccc1)NC(C)C(O)c1ccc(O)cc1 (configuration not stated) [Isoxsuprine (hydrochloride)] 0.755
N=C(N)NC(=O)Cc1c(Cl)cccc1Cl [Guanfacine hydrochloride] 0.966
